3 substances from article PMC3723532 can be followed below.

Chains of the proteins cited; added tags and fusions are not shown.
UniProt O49687: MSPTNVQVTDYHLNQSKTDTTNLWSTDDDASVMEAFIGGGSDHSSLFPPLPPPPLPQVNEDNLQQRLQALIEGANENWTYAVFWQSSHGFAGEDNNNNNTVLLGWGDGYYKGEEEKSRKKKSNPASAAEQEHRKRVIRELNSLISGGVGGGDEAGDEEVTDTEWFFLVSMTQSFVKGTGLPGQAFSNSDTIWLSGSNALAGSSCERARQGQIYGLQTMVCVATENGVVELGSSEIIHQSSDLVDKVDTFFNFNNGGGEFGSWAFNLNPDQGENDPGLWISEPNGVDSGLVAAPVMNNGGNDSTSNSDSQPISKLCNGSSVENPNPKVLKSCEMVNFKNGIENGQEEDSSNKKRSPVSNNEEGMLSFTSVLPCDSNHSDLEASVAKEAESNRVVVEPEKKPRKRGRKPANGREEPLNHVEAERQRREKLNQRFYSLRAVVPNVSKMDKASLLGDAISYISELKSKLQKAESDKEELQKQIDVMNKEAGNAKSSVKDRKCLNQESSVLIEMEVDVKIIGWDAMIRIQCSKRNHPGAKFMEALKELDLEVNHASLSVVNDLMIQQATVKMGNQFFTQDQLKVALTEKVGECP
UniProt Q39204: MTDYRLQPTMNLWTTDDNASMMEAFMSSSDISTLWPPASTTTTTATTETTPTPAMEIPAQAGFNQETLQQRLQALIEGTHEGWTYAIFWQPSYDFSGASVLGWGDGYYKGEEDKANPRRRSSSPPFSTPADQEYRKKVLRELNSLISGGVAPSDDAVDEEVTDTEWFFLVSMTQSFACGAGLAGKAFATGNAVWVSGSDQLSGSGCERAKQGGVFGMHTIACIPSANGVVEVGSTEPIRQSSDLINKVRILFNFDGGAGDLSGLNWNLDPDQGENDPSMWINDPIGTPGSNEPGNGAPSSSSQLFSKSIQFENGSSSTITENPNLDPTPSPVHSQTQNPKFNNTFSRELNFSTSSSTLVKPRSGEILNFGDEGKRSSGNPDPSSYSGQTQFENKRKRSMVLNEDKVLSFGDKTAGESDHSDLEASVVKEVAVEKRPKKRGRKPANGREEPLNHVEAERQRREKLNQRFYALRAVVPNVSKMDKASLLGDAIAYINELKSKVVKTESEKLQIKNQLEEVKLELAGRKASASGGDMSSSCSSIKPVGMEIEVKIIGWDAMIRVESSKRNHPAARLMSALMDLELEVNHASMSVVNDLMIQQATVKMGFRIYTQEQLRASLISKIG
UniProt Q9FIP9: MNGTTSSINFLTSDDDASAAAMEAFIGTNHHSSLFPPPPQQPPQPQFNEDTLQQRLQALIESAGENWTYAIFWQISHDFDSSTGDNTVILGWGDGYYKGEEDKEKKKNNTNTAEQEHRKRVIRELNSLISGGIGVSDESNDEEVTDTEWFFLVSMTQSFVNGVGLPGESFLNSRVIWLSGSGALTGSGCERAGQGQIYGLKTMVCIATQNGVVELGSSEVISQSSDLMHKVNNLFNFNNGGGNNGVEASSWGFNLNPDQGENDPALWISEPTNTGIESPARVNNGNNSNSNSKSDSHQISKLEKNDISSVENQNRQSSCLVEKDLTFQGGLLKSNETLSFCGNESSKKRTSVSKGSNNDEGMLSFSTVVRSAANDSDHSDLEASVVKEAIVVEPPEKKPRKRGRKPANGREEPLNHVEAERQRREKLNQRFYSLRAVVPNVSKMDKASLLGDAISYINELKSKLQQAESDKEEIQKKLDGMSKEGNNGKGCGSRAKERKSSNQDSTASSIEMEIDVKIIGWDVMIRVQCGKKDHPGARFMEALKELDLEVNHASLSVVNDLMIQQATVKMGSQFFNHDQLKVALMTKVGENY
UniProt Q93ZM9: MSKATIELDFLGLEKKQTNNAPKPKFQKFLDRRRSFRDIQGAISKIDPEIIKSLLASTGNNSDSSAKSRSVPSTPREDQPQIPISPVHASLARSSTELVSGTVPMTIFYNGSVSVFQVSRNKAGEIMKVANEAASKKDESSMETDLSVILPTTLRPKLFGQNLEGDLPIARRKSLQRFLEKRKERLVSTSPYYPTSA
UniProt O23487: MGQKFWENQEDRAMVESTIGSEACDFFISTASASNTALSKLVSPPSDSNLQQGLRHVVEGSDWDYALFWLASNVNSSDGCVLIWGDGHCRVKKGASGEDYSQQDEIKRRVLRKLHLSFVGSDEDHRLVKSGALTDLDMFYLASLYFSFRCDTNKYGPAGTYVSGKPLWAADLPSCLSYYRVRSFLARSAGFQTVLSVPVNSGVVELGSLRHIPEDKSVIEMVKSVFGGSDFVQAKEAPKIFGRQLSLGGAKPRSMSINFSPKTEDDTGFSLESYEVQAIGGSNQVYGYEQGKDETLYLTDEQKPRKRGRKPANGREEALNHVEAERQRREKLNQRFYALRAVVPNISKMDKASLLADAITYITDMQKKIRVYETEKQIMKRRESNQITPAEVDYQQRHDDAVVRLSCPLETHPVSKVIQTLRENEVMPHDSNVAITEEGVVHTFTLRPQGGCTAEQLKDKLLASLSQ
UniProt Q9LNJ5: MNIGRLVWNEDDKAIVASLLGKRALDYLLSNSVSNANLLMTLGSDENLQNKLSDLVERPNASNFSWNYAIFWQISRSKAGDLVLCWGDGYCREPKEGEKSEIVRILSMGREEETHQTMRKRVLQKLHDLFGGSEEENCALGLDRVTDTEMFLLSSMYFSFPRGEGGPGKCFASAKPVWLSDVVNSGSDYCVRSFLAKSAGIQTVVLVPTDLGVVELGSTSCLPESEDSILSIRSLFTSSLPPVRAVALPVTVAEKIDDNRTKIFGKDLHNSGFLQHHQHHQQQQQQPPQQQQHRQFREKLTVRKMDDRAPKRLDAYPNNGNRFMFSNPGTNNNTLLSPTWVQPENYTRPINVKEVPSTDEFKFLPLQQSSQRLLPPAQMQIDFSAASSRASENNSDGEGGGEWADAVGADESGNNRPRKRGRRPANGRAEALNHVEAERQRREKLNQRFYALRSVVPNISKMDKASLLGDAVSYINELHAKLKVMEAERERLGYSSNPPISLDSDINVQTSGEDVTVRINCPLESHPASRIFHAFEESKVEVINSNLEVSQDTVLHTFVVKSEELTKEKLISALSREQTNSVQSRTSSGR
UniProt Q9ZPY8: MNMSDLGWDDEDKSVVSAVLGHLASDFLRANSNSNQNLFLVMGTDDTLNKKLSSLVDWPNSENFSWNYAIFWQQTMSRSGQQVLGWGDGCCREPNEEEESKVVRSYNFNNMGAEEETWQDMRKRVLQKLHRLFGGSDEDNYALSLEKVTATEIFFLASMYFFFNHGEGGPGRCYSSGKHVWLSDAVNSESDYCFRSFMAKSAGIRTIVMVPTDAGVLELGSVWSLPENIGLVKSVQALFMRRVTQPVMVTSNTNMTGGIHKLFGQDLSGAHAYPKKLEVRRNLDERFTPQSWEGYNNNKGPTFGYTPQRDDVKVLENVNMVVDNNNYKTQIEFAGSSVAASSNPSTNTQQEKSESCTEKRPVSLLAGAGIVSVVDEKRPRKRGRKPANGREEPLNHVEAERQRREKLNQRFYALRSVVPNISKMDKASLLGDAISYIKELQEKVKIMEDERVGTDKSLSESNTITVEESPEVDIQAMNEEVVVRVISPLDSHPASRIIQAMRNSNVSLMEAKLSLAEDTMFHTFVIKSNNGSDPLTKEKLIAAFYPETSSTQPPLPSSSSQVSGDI

These are yes or no findings as the source states them, for the method shown. In cells and extracts the contact can be indirect. Some entries that bind do so weakly or less than the wild type. For some assays here: Where a sequence is shown, tags or fusion partners need not be part of it.

What all share (test): split reporter; BiFC: nYFP and cYFP fusions coexpressed in N. benthamiana leaves by Agrobacterium infiltration; YFP fluorescence 50 h after infiltration, plants at 24°C
Test [1] has as its target T1, GL3 (BiFC fusion) (Arabidopsis thaliana) (UniProt Q9FN69).
T1 sequence: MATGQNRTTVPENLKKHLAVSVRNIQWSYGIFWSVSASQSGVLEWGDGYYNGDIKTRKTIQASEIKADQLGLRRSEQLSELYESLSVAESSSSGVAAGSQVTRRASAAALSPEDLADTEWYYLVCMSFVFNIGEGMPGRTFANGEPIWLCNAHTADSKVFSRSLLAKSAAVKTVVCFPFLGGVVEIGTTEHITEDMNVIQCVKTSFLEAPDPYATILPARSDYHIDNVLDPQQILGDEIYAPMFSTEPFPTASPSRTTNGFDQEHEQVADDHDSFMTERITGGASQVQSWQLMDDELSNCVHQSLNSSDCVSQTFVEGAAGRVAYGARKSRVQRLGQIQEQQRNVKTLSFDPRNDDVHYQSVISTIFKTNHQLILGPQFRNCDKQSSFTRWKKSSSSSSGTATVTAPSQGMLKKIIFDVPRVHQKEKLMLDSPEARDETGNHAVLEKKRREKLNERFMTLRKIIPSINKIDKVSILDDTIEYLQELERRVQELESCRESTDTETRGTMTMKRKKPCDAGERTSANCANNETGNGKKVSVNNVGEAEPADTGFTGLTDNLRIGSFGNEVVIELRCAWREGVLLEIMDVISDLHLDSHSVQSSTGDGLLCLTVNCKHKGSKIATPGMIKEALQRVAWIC

Test [2] has as its target T2, EGL3 (BiFC fusion) (Arabidopsis thaliana) (UniProt Q9CAD0).
T2 sequence: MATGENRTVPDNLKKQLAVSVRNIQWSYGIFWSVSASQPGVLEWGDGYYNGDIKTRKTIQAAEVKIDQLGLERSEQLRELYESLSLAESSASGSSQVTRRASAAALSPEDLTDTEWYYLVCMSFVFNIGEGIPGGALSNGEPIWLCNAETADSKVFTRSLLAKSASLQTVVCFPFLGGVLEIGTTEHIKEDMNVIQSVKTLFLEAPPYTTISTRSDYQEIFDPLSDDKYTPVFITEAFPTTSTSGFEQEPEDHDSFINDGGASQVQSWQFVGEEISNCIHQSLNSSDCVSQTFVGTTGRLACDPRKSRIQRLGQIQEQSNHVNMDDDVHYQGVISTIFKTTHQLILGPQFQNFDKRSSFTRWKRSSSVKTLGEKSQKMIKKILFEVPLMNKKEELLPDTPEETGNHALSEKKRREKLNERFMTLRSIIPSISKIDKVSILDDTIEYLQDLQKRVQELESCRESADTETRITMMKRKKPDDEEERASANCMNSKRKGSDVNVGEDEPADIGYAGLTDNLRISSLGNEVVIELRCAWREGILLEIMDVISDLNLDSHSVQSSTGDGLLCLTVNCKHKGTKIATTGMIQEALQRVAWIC

Test [3] deals with MYC4 (BiFC fusion) (Arabidopsis thaliana) (UniProt O49687).
The target in test [4] is T3, MYB75 (BiFC fusion) (Arabidopsis thaliana) (UniProt Q9FE25).
T3 sequence: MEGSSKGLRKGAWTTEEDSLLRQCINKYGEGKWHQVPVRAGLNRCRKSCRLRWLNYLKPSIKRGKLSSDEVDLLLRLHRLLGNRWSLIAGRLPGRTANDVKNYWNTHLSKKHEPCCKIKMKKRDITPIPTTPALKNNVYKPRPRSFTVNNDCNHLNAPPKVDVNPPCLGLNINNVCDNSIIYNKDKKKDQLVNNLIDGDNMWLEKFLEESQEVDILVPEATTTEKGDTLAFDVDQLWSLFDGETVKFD

The target in test [5] is T4, TT8 (BiFC fusion) (Arabidopsis thaliana) (UniProt Q9FT81).
T4 sequence: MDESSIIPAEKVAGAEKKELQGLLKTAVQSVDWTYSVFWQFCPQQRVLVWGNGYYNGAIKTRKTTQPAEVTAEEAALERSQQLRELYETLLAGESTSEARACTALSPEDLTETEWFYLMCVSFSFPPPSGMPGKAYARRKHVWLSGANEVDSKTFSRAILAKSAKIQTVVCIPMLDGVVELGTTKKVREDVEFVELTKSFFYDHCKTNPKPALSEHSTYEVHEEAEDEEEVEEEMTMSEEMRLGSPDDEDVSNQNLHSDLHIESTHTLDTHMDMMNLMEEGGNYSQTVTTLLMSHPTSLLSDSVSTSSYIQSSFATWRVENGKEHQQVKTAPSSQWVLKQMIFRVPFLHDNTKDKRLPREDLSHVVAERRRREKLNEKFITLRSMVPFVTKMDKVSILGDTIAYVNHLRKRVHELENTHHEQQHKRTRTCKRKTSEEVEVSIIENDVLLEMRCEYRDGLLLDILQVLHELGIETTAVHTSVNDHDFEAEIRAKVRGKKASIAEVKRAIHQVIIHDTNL

Test [6] concerns the target MYC2 (BiFC fusion) (Arabidopsis thaliana) (UniProt Q39204).
Test [7] concerns the target MYC3 (BiFC fusion) (Arabidopsis thaliana) (UniProt Q9FIP9).
In test [8] the target is T5, GL1 (BiFC fusion) (Arabidopsis thaliana) (UniProt P27900).
T5 sequence: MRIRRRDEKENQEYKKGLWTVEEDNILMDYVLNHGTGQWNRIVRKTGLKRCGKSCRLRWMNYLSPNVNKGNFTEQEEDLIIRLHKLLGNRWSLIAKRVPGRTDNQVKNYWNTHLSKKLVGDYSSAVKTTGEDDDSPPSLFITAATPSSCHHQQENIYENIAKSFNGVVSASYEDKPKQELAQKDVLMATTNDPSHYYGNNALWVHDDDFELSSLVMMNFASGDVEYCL

Test [9] has as its target T6, JAZ1-nYFP (Arabidopsis thaliana) (UniProt Q9LMA8).
T6 sequence: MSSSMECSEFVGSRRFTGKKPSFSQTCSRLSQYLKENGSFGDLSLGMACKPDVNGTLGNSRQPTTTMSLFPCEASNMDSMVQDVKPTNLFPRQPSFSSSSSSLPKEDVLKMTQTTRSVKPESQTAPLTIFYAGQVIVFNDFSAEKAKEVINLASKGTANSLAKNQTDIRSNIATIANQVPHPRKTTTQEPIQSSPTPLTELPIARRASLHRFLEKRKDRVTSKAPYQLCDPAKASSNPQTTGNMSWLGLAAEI

The target in test [10] is JAZ10 (fused with nYFP) (Arabidopsis thaliana) (UniProt Q93ZM9).

As for cYFP-bHLH3 (from UniProt O23487 1-467), the binding entry in [1], in test [2], in [3], in test [4], in [5] and in test [6] was “no binding” each time. The binding entry was “no binding” in test [7], “no binding” in test [8] and “binds” in test [9].

In the case of cYFP-bHLH13 (from UniProt Q9LNJ5 1-590), the binding result is recorded as “no binding” in test [1]; “no binding” in test [2]; “binds” in test [10]; “no binding” in test [3]; “no binding” in test [4]; “no binding” in [5]. Further, the binding entry in [6] is reported as “no binding”; in [7], “no binding”; in test [8], “no binding”; in test [9], “binds”.

Consider cYFP-bHLH17 (from UniProt Q9ZPY8 1-566), for which the binding entry was “no binding” in test [1]; “no binding” in test [2]; “binds” in test [10]; “no binding” in [3]; “no binding” in test [4]; “no binding” in test [5]. For the same substance, the binding result in [6] was “no binding”; in test [7], “no binding”; in test [8], “no binding”; in test [9], “binds”.
